Our source for the activity change, negative = inhibition values is PubChem BioAssay AID1745853 (National Center for Advancing Translational Sciences (NCATS), 2022).

Common to all, as to assay: Primary Screen for Target Class Profiling of Small Molecule Inhibitors of Methyltransferases
The target in assay [1] is Glycine N-methyltransferase (Homo sapiens) (UniProt Q14749). As to conditions: purified enzyme, MTase-Glo SAH luminescence; measured here: GNMT inhibition; at 40 µM; stronger effect = lower value. The method, boiled down: (§1)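 Each enzyme was assayed with SAM and its substrate. SAH formation detected by MTase-Glo luminescence; single-point 40 uM screen[…].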
For assay [2], the target named is Guanidinoacetate N-methyltransferase (Homo sapiens) (UniProt Q14353). To be noted: purified enzyme, MTase-Glo SAH luminescence; measured here: GAMT inhibition; at 40 µM; stronger effect = lower value. The method in brief: as §1
For assay [3], the target named is Histamine N-methyltransferase (Homo sapiens) (UniProt P50135). As to conditions: purified enzyme, MTase-Glo SAH luminescence; measured here: HNMT inhibition; at 40 µM; stronger effect = lower value. The method, boiled down:
as §1

Assay [4] has as its target Nicotinamide N-methyltransferase (Homo sapiens) (UniProt P40261). To be noted: purified enzyme, MTase-Glo SAH luminescence; measured here: NNMT inhibition; at 40 µM; stronger effect = lower value. The method in brief: as §1
In assay [5] the target is Phenylethanolamine N-methyltransferase (Homo sapiens) (UniProt P11086). To be noted: purified enzyme, MTase-Glo SAH luminescence; measured here: PNMT inhibition; at 40 µM; stronger effect = lower value. The method, boiled down: as §1

This is one part of the list. The main result of the screen is listed elsewhere. These columns were measured beside it and carry no call.
On the % scale 0 is the no-effect control and ±100 the full control effect.

With `CCCn1c(=O)c2ccc(C(=O)NC(C)CC)cc2n2c(SCC(=O)Nc3cccc(C)c3)nnc12` (stereo unspecified), the activity change, negative = inhibition in assay [1] came out at 7.33%; in assay [2] it was 0%; in assay [3], 12.9%; in assay [4] it was 7.26%; in assay [5] it was 6.75%.

Turning to `COc1ccccc1NC(=O)Cn1nc2n(Cc3ccc(F)cc3)c(=O)c3ccccc3n2c1=O`, the activity change, negative = inhibition was -0.148% in assay [1]; 5.52% in assay [2]; 1.97% in assay [3]; -0.127% in assay [4]; -1.91% in assay [5].

Turning to `CC1=CC(=O)OC(C)(CC(C)(O)C(=O)O)C1` (stereo unspecified), the activity change, negative = inhibition is 3.38% in assay [1]; -3.91% in assay [2]; 4.48% in assay [3]; -13.5% in assay [4]; -0.453% in assay [5].

Consider `CCCc1nc(C(=O)NC(CC)c2ccc(S(C)(=O)=O)cc2)cs1` (stereo unspecified), for which the activity change, negative = inhibition is -1.6% in assay [1]; -2.82% in assay [2]; 0.033% in assay [3]; -7.89% in assay [4]; -3.56% in assay [5].

On to `Nc1nc(N)c2nc(CNc3ccc(C(=O)NC(CCC(=O)O)C(=O)O)cc3)cnc2n1` (stereo unspecified), for which the activity change, negative = inhibition in assay [1] is -13.3%; in assay [2] it was 8.5%; in assay [3], 3.76%; in assay [4], -7.99%; in assay [5], 2.6%.

For `O=C(c1ccco1)N1CCCCC1c1nc(C2CC2)n[nH]1` (stereo unspecified), the activity change, negative = inhibition in assay [1] was -4.53%; in assay [2], -10.4%; in assay [3], -3.19%; in assay [4], -13.7%; in assay [5], -11.1%.

Regarding `CCCn1c(=O)c2ccc(C(=O)NC(C)C)cc2n2c(=O)n(CC(=O)Nc3ccc(Cl)cc3)nc12`, the activity change, negative = inhibition in assay [1] is 5.54%; in assay [2], 0%; in assay [3], 5.71%; in assay [4], -1.53%; in assay [5], 3.54%.

Regarding `CC1(C(=O)NC2CCCCCCC2)Cn2c(ccc2-c2ccccc2)C(=O)N1Cc1ccccc1F` (stereo unspecified), the activity change, negative = inhibition is 2.63% in assay [1]; 0% in assay [2]; 5.99% in assay [3]; 3.13% in assay [4]; 2.37% in assay [5].

In the case of `CNCCN1CCC(c2cc(CN(C)C(=O)c3cccc(Oc4ccccc4)c3)ccn2)CC1`, the activity change, negative = inhibition was 4.91% in assay [1]; 10.5% in assay [2]; -0.772% in assay [3]; -8.56% in assay [4]; 3.76% in assay [5].

With `COc1ccc(-c2cc(-c3ccc4c(c3)NC(=O)CO4)nc3c2COc2ccc(C)cc2-3)cc1`, the activity change, negative = inhibition in assay [2] was -21.9%; in assay [4], -25.5%; in assay [5], -1.45%.

As to `CC(C)(O)/C=C/C(=O)[C@](C)(O)[C@H]1[C@H](O)C[C@@]2(C)[C@@H]3CC=C4[C@@H](C=C(O[C@@H]5O[C@H](CO)[C@@H](O)[C@H](O)[C@H]5O)C(=O)C4(C)C)[C@]3(C)C(=O)C[C@]12C`, the activity change, negative = inhibition in assay [1] is 0%; in assay [2] it was -9.63%; in assay [3], -2.67%; in assay [4], -18.5%; in assay [5], -1.04%.

For `O=C(CCc1nnc2n(CCc3ccccc3)c(=O)c3ccccc3n12)NCc1cccnc1`, the activity change, negative = inhibition in assay [1] is -13.4%; in assay [2], 0%; in assay [3], 7.69%; in assay [4], 9.65%; in assay [5] it was 2.84%.

On to `CC(=O)OC1C(O)C(C)(O)C(/C=C/C(=O)O)C2(C)CCCC(C)(C)C12` (stereo unspecified), for which the activity change, negative = inhibition was -0.915% in assay [1]; -13.3% in assay [2]; -0.851% in assay [3]; -25.2% in assay [4]; -1.93% in assay [5].

Turning to `CC(C)C1=NOC2(CCN([S+](=O)([O-])c3cccs3)C2)C1` (stereo unspecified), the activity change, negative = inhibition is -7.63% in assay [1]; -10.4% in assay [2]; -4.35% in assay [3]; -15.9% in assay [4]; -21.5% in assay [5].

With `O=S(=O)(Nc1ccccc1F)c1ccc2[nH]c3c(c2c1)CCCC3`, the activity change, negative = inhibition in assay [1] was -6.26%; in assay [2], 2.66%; in assay [3], -0.793%; in assay [4], -6.79%; in assay [5], 0.016%.

Turning to `Cc1nnc2n(-c3ccccc3)c(=O)c3ccc(C(=O)NCc4ccc5c(c4)OCO5)cc3n12`, the activity change, negative = inhibition in assay [1] was 1.29%; in assay [2], 0.884%; in assay [3], -6.59%; in assay [4], 0.889%; in assay [5], -10.4%.

Take `O=C(C[C@@H]1CCNC[C@@H]1Cc1cc(CN2CCCCC2)on1)NCc1cccs1`: the activity change, negative = inhibition is -0.861% in assay [1]; -2.68% in assay [2]; -2.35% in assay [3]; -9.2% in assay [4]; 9.71% in assay [5].

Take `CN(C)c1nc(-c2ccccc2)nc2c1CCN(C(=O)C1CCOC1)C2` (stereo unspecified): the activity change, negative = inhibition was -9.01% in assay [1]; -7.6% in assay [2]; -6.2% in assay [3]; -18.8% in assay [4]; -11% in assay [5].

For the compound `Cc1ccc(C)c(N2C(=O)c3cc(-c4ccco4)nn3CC2(C)C(=O)NC2CCCCC2)c1` (stereo unspecified), the activity change, negative = inhibition in assay [1] is -12.9%; in assay [2], 2.4%; in assay [3], -26.6%; in assay [4], -5.03%; in assay [5], -6.06%.

Consider `COc1ccc(NS(=O)(=O)c2ccc3[nH]c(=O)[nH]c3c2)cc1OC`, for which the activity change, negative = inhibition was -1.34% in assay [1]; 0% in assay [2]; 2.8% in assay [3]; -3.36% in assay [4]; -16.2% in assay [5].

`CCOc1ccc(CNC(=O)c2cc3n(n2)CC(C)(C(=O)NCc2ccccc2)N(C)C3=O)cc1OC` (stereo unspecified): the activity change, negative = inhibition in assay [1] was -0.221%; in assay [2], 2.7%; in assay [3], -0.102%; in assay [4], 9.27%; in assay [5] it was 2.02%.

`Fc1ccc(C(c2ccc(F)cc2)N2CCN(C/C=C/c3ccccc3)CC2)cc1`: the activity change, negative = inhibition in assay [1] is -2.95%; in assay [2], 9.84%; in assay [3], 3.5%; in assay [4], -3.44%; in assay [5] it was 10.9%.

As to `Oc1ccc([C@H]2COc3cc(O)ccc3C2)cc1`, the activity change, negative = inhibition is 3.42% in assay [1]; 8.02% in assay [2]; 4.56% in assay [3]; -9.78% in assay [4]; 5.05% in assay [5].

As to `COCCCN(CCC(=O)NCc1ccc2c(c1)OCO2)C(=O)c1cc(C)oc1C`, the activity change, negative = inhibition is -0.314% in assay [1]; 1.02% in assay [2]; 3.15% in assay [3]; -3.02% in assay [4]; -1.61% in assay [5].

Take `O=C(CCc1conc1-c1ccccc1F)NCc1cccc(C(F)(F)F)c1`: the activity change, negative = inhibition in assay [1] was -7.14%; in assay [2] it was -9.63%; in assay [3], -2.62%; in assay [4] it was -19.4%; in assay [5], -15.6%.

Regarding `CCC(CC)C(=O)Nc1sc2c(c1C#N)CCC(C(C)(C)CC)C2` (stereo unspecified), the activity change, negative = inhibition in assay [1] was 6.8%; in assay [2] it was -7.36%; in assay [3], 9.59%; in assay [4] it was -21.9%; in assay [5], -4.42%.

For `CCS(=O)(=O)N1CCC2(CC1)CN(c1cccc(F)c1)C2c1ccccc1` (stereo unspecified), the activity change, negative = inhibition in assay [1] was -6.31%; in assay [2] it was -10.6%; in assay [3], -3.65%; in assay [4], -10.3%; in assay [5], -9.1%.

`CCn1nc(C)cc1C(=O)N1CCOC[C@H](Oc2cccnc2)C1`: the activity change, negative = inhibition in assay [1] is 0.789%; in assay [2], 5.09%; in assay [3], -0.006%; in assay [4], 2.95%; in assay [5], 6.51%.

On to `Cc1ccccc1Cn1nc2n(CCCOC(C)C)c(=O)c3ccccc3n2c1=O`, for which the activity change, negative = inhibition was -7.24% in assay [1]; -0.53% in assay [2]; 5.36% in assay [3]; -18.7% in assay [4]; -5.4% in assay [5].

With `O=C(CCn1ccc2cc(S(=O)(=O)N3CCCCC3)ccc21)N1CCC(Cc2ccccc2)CC1`, the activity change, negative = inhibition in assay [1] was -0.581%; in assay [2], 0%; in assay [3], -0.252%; in assay [4] it was -0.247%; in assay [5], -0.22%.

Consider `O=C(Cn1ccn2nc(-c3ccc(F)cc3)c(CO)c2c1=O)Nc1ccc(F)cc1F`, for which the activity change, negative = inhibition is -3.11% in assay [1]; -1.08% in assay [2]; -3.29% in assay [3]; -1.25% in assay [4]; -6.27% in assay [5].

For `Cc1nc(N2CCCC2)nc(N2CCC3(CC2)OCCCC3O)c1C` (stereo unspecified), the activity change, negative = inhibition in assay [1] is -0.204%; in assay [2], -0.005%; in assay [3], -6.79%; in assay [4], -1.63%; in assay [5], -5.3%.

As for `Cc1cc(Nc2nn(-c3ccccc3)c(=O)c3ccccc23)n[nH]1`, the activity change, negative = inhibition in assay [2] is -3.79%; in assay [4] it was -16.2%; in assay [5], -0.673%.

As for `COCCCNC(=O)C1(C)Cn2nc(-c3ccccc3)cc2C(=O)N1c1cccc(C)c1C` (stereo unspecified), the activity change, negative = inhibition in assay [1] was 6.77%; in assay [2], 4.57%; in assay [3], 5.98%; in assay [4], 9.77%; in assay [5] it was -0.234%.

For `CCCCN1C(=O)c2cc(C(=O)N3CCC(N4CCCCC4)CC3)nn2CC1(C)C(=O)NC1CCCC1` (stereo unspecified), the activity change, negative = inhibition in assay [1] was 5.76%; in assay [2], 0%; in assay [3] it was -0.571%; in assay [4], 5.95%; in assay [5], 4.69%.

Consider `CC(=O)C1=C(C)N(c2cccc(C(F)(F)F)c2)C(=O)N[C@H]1c1ccc(C#N)nc1`, for which the activity change, negative = inhibition is -0.071% in assay [1]; 4.08% in assay [2]; 0.135% in assay [3]; -14.8% in assay [4]; -7.04% in assay [5].

For `O=[S+]([O-])(NCC1CN(Cc2ccc3[nH]ccc3c2)CC12CN(c1ccccc1)C2)c1ccccc1` (stereo unspecified), the activity change, negative = inhibition in assay [1] was -4.19%; in assay [2], -5.44%; in assay [3], -6.66%; in assay [4] it was -11.7%; in assay [5] it was -6.75%.

As for `CC(CCc1ccccc1)N1C(=O)c2cc3sccc3n2CC1(C)C(=O)NC1CCCCC1` (stereo unspecified), the activity change, negative = inhibition in assay [1] was -5.55%; in assay [2] it was 5.18%; in assay [3], -1.69%; in assay [4] it was -0.807%; in assay [5], -0.598%.
